# The supplement of paper PMC12217912
# The list shows a part of the results. The full chains were built here from the parent and the listed change. Values near 0.05 are background.
# B1: TEV protease; numbered along this chain (parent)
# chain: MGESLFKGPRDYNPISSSICHLTNESDGHTTSLYGIGFGPFIITNKHLFRRNNGTLVVQSLHGVFKVKDTTTLQQHLVDGRDMIIIRMPKDFPPFPQKLKFREPQREERICLVTTNFQTKSMSSMVSDTSCTFPSGDGIFWKHWIQTKDGQCGSPLVSTRDGFIVGIHSASNFTNTNNYFTSVPKNFMELLTNQEAQQWVSGWRLNADSVLWGGHKVFMVKPEEPFQPVKEATQL
# Variants of: B1
# Test: raw area under fraction-flipped curve 0-4 h after induction (AUC4h, not background-subtracted), DNA-recorder readout of cleavage of the substrate (dimensionless); higher = more cleavage of the substrate by the protease variant
# Conditions: temperature: 34 °C; time window: 0-4 h after rhamnose induction
# Protocol: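 In vivo DNA recorder in E. coli TOP10(DE3) ΔrhaA at 34 °C. Each TEVp single-site mutant (parent TEVp 0) is paired with a single-site variant of the 7-mer TEVs (canonical ENLYFQ|S). The substrate sits between flexible linkers in a Bxb1-sfGFP-TEVs-SsrA fusion, so cleavage stabilises Bxb1 and speeds flipping of a recombination array, read by NGS. The value is the raw area under the fraction-flipped curve over 0-4 h after rhamnose induction (AUC4h), with ≥20 reads per time point. It is not background-subtracted; inactive controls average about 0.047.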
# 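Further: Bxb1 expression induced with 0.2% (w/v) L-rhamnose at OD600 near 0.5, cultures sampled hourly, flipped fraction per protease–substrate barcode pair counted by paired-end Illumina sequencing.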
variant,measurement,value
K46G,area with substrate ENLYFAS,0.0536
same,area with substrate ENLYFCS,0.0444
same,area with substrate ENLYFDS,0.0707
same,area with substrate ENLYFES,0.0428
same,area with substrate ENLYFFS,0.0736
same,area with substrate ENLYFGS,0.0557
same,area with substrate ENLYFHS,0.0666
same,area with substrate ENLYFIS,0.0607
same,area with substrate ENLYFKS,0.0606
same,area with substrate ENLYFLS,0.055
same,area with substrate ENLYFMS,0.0564
same,area with substrate ENLYFNS,0.0552
same,area with substrate ENLYFPS,0.0553
same,area with substrate ENLYFSS,0.0448
same,area with substrate ENLYFTS,0.0554
same,area with substrate ENLYFVS,0.0631
same,area with substrate ENLYFWS,0.0975
same,area with substrate ENLYFYS,0.0571
P89I,area with substrate ENLYFAS,0.0528
same,area with substrate ENLYFES,0.0489
same,area with substrate ENLYFFS,0.0742
same,area with substrate ENLYFIS,0.0466
same,area with substrate ENLYFKS,0.0468
same,area with substrate ENLYFMS,0.0404
same,area with substrate ENLYFNS,0.0518
same,area with substrate ENLYFRS,0.0526
same,area with substrate ENLYFSS,0.0495
same,area with substrate ENLYFTS,0.0463
same,area with substrate ENLYFVS,0.048
P89G,area with substrate ENLYFAS,0.0566
same,area with substrate ENLYFFS,0.0649
same,area with substrate ENLYFIS,0.0668
same,area with substrate ENLYFPS,0.0623
same,area with substrate ENLYFSS,0.0567
P9E,area with substrate ENLYFAS,0.0629
same,area with substrate ENLYFCS,0.07
same,area with substrate ENLYFDS,0.0578
same,area with substrate ENLYFFS,0.0683
same,area with substrate ENLYFGS,0.0534
same,area with substrate ENLYFHS,0.0701
same,area with substrate ENLYFIS,0.0574
same,area with substrate ENLYFMS,0.064
same,area with substrate ENLYFPS,0.0493
same,area with substrate ENLYFSS,0.083
same,area with substrate ENLYFVS,0.0585
P9S,area with substrate ENLYFAS,0.0601
same,area with substrate ENLYFCS,0.0743
same,area with substrate ENLYFFS,0.0858
same,area with substrate ENLYFIS,0.0612
same,area with substrate ENLYFMS,0.0653
same,area with substrate ENLYFPS,0.0664
same,area with substrate ENLYFTS,0.06
same,area with substrate ENLYFVS,0.054
same,area with substrate ENLYFYS,0.0627
R204Y,area with substrate ENLYFAS,0.0563
same,area with substrate ENLYFCS,0.0646
same,area with substrate ENLYFDS,0.0604
same,area with substrate ENLYFES,0.0673
same,area with substrate ENLYFFS,0.0613
same,area with substrate ENLYFGS,0.0521
same,area with substrate ENLYFIS,0.0531
same,area with substrate ENLYFKS,0.0466
same,area with substrate ENLYFLS,0.0476
same,area with substrate ENLYFMS,0.04
same,area with substrate ENLYFNS,0.069
same,area with substrate ENLYFPS,0.0641
same,area with substrate ENLYFSS,0.0601
same,area with substrate ENLYFTS,0.0614
same,area with substrate ENLYFYS,0.0619
Y179G,area with substrate ENLYFAS,0.0529
same,area with substrate ENLYFDS,0.0405
same,area with substrate ENLYFES,0.0499
same,area with substrate ENLYFFS,0.0625
same,area with substrate ENLYFIS,0.0241
same,area with substrate ENLYFNS,0.0454
same,area with substrate ENLYFPS,0.0357
same,area with substrate ENLYFRS,0.058
L156A,area with substrate ENLYFAS,0.0312
same,area with substrate ENLYFCS,0.0503
same,area with substrate ENLYFDS,0.0278
same,area with substrate ENLYFFS,0.0565
same,area with substrate ENLYFGS,0.0642
same,area with substrate ENLYFIS,0.0553
same,area with substrate ENLYFKS,0.0703
same,area with substrate ENLYFLS,0.0874
same,area with substrate ENLYFMS,0.0672
same,area with substrate ENLYFNS,0.0507
same,area with substrate ENLYFPS,0.0632
same,area with substrate ENLYFRS,0.0623
same,area with substrate ENLYFSS,0.0826
same,area with substrate ENLYFTS,0.0815
same,area with substrate ENLYFVS,0.0541
same,area with substrate ENLYFYS,0.0519
L56N,area with substrate ENLYFAS,0.035
same,area with substrate ENLYFCS,0.0275
same,area with substrate ENLYFES,0.0474
same,area with substrate ENLYFFS,0.0342
same,area with substrate ENLYFGS,0.0386
same,area with substrate ENLYFHS,0.048
same,area with substrate ENLYFIS,0.0358
same,area with substrate ENLYFLS,0.0492
same,area with substrate ENLYFMS,0.0372
same,area with substrate ENLYFNS,0.0492
same,area with substrate ENLYFPS,0.0515
same,area with substrate ENLYFRS,0.0491
same,area with substrate ENLYFSS,0.0325
same,area with substrate ENLYFTS,0.0229
same,area with substrate ENLYFWS,0.0483
I86H,area with substrate ENLYFAS,0.0252
same,area with substrate ENLYFCS,0.0599
same,area with substrate ENLYFFS,0.0433
same,area with substrate ENLYFGS,0.0436
same,area with substrate ENLYFIS,0.0142
same,area with substrate ENLYFKS,0.0427
same,area with substrate ENLYFPS,0.0386
same,area with substrate ENLYFRS,0.0311
same,area with substrate ENLYFSS,0.0394
same,area with substrate ENLYFVS,0.0302
S127N,area with substrate ENLYFAS,0.0548
same,area with substrate ENLYFCS,0.0648
same,area with substrate ENLYFDS,0.0525
same,area with substrate ENLYFES,0.0615
same,area with substrate ENLYFFS,0.0732
same,area with substrate ENLYFGS,0.059
same,area with substrate ENLYFIS,0.0477
same,area with substrate ENLYFKS,0.0527
same,area with substrate ENLYFMS,0.0619
same,area with substrate ENLYFNS,0.0607
same,area with substrate ENLYFPS,0.0576
same,area with substrate ENLYFRS,0.0571
same,area with substrate ENLYFSS,0.0647
same,area with substrate ENLYFTS,0.0577
same,area with substrate ENLYFYS,0.0639
T31Y,area with substrate ENLYFAS,0.0568
same,area with substrate ENLYFDS,0.0526
same,area with substrate ENLYFES,0.0676
same,area with substrate ENLYFFS,0.0719
same,area with substrate ENLYFGS,0.057
same,area with substrate ENLYFHS,0.0618
same,area with substrate ENLYFIS,0.0657
same,area with substrate ENLYFKS,0.0538
same,area with substrate ENLYFLS,0.0176
same,area with substrate ENLYFMS,0.0841
same,area with substrate ENLYFNS,0.0651
same,area with substrate ENLYFPS,0.0533
same,area with substrate ENLYFRS,0.0602
T31M,area with substrate ENLYFAS,0.07
same,area with substrate ENLYFCS,0.057
same,area with substrate ENLYFES,0.0562
same,area with substrate ENLYFGS,0.0633
same,area with substrate ENLYFHS,0.0645
same,area with substrate ENLYFIS,0.0572
same,area with substrate ENLYFLS,0.0616
same,area with substrate ENLYFMS,0.0544
same,area with substrate ENLYFNS,0.0739
same,area with substrate ENLYFPS,0.0645
same,area with substrate ENLYFRS,0.0499
same,area with substrate ENLYFTS,0.0736
same,area with substrate ENLYFWS,0.0482
same,area with substrate ENLYFYS,0.0561
I15R,area with substrate ENLYFAS,0.0657
same,area with substrate ENLYFFS,0.0659
same,area with substrate ENLYFGS,0.0474
same,area with substrate ENLYFHS,0.0469
same,area with substrate ENLYFIS,0.0562
same,area with substrate ENLYFKS,0.0575
same,area with substrate ENLYFMS,0.0451
same,area with substrate ENLYFNS,0.0516
same,area with substrate ENLYFPS,0.036
same,area with substrate ENLYFTS,0.0517
same,area with substrate ENLYFWS,0.045
